One experiment has as its target myristylated PKA-Cα K7C (mouse, UniProt P05132, K7C, N-terminal myristylation). The experiment in a line: SPR. In general terms: SPR reads the build-up and loss of mass on a sensor chip optically.
In experiment [1] the target is T1, wild-type, nonmyristylated mouse PKA-C (catalytic subunit of protein kinase A) (mouse, UniProt P05132). The experiment in a line: HDX-MS.
Experiment [2] concerns the target PKA-C G136C in a minimal-cysteine ((-)Cys, C199A) background (mouse, UniProt P05132, C199A | G136C). Description: cross-linking.
Experiment [3] addresses T1, wild-type, nonmyristylated mouse PKA-C …. Description: cross-linking.

Experimental findings from paper PMC11565934 (bioRxiv, 2024) are described below.

B1: phosphorylated SMOOTHENED (pSMO), FLAG-tagged mouse SMO […], GRK2-phosphorylated, wild type (receptor)
chain: not shown
modifications: GRK2/3-phosphorylated; mapped sites pS560, pS594, pT597, pS599, pS615, pS642, pT644, pT648
As to B1, the dissociation constant (Kd) – broadly, the free concentration of one partner at which half of the binding sites on the other are occupied at equilibrium, for simple one-to-one binding – in the experiment with myristylated PKA-Cα K7C came to 82 nM. In other words, the double-digit nanomolar range.

B2: phosphorylated SMO L637C (pSMO L637C; FLAG-tagged mouse SMO […]) (receptor)
chain: not shown
modifications: GRK2/3-phosphorylated; mapped sites pS560, pS594, pT597, pS599, pS615, pS642, pT644, pT648
On to B2, for which the binding result in experiment [1] is recorded as “binds”.

B3: phosphorylated SMO A574C (FLAG-tagged mouse SMO […]) (receptor)
chain: not shown
modifications: GRK2/3-phosphorylated; mapped sites pS560, pS594, pT597, pS599, pS615, pS642, pT644, pT648
Consider B3, for which, in experiment [2], the binding result was “binds”.

B4: SMO L637C (FLAG-tagged mouse SMO […]) as used in Fig. 2b (receptor)
chain: not shown
B4: the binding result in experiment [3] was “binds”.

B5: phosphorylated SMO S570C (FLAG-tagged mouse SMO […]) (receptor)
chain: not shown
modifications: GRK2/3-phosphorylated; mapped sites pS560, pS594, pT597, pS599, pS615, pS642, pT644, pT648
As for B5, the binding result in experiment [2] is “binds”.
